# Experimental data taken from publication PMC6212790.
# Some of the results follow. At the low end of the ranking, values are background and their order means little.
# Biological target: T1, GST-Rok-C97-191 (UniProt O34857)
# T1 sequence: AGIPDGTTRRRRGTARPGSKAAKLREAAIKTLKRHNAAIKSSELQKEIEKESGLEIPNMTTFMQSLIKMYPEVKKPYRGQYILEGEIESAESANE
# Assay: protein binding microarray;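 further: rank score from −0.5 (least bound) to 0.5 (best bound)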
# Conditions: Rok is a gene silencer of Bacillus subtilis; high values mean tight binding; most listed sequences are background and not binding sites; double strand, one strand shown
row,Sequence,binding signal [E-score]
1,AGCTGTTC,0.00614
2,GCACGCCA,-0.0366
3,CAAGAGCC,-0.112
4,TACATTAA,0.242
5,CGGGCACG,-0.195
6,TATCTCGA,0.128
7,AGCGGGTC,-0.00397
8,CCGACACA,-0.054
9,ATGCCTGA,-0.0618
10,CCTGCTGA,-0.155
11,ACCTATGG,-0.223
12,ATCAGGAG,-0.202
13,ACGCAACT,0.0546
14,ACTCCTGC,-0.0798
15,AAAAACTG,0.0182
16,ACCAAAAT,0.113
17,CCGGAACG,-0.0427
18,GAAGATCA,0.0878
19,ACTCAGGG,-0.0646
20,ACCGCGTG,-0.177
21,CCCATCAA,-0.094
22,AGGCCAAT,-0.176
23,AATCCTCG,-0.299
24,CTTTCCCC,-0.0416
25,GGTAGGTA,0.331

row,Sequence,binding signal [E-score]
1,GTTGCCGA,-0.128
2,AAACCTGA,-0.0895
3,CCCTCTAA,-0.074
4,CATTAACA,0.116
5,CACCGCTG,-0.0906
6,ATTCCCTC,-0.114
7,GTAAACCA,0.134
8,AGGATTGG,-0.179
9,CAGTGATC,-0.136
10,AGCGAAGG,-0.231
11,ACTTACCG,0.145
12,CTAGGTAA,0.102
13,GCGAGCAA,-0.0854
14,ACCTCCGG,-0.0674
15,GACGCCGA,-0.224
16,CCCTATCA,-0.0872
17,CATAGTCC,-0.076
18,CTCCCCAG,-0.351
19,GGGTTTAC,-0.00388
20,CTGCGTTA,-0.0638
21,AGCCACCC,-0.246
22,GGTCATAC,0.051
23,CGCCCTAA,-0.151
24,CATAGATC,0.231
25,ATAACTCA,0.132

row,Sequence,binding signal [E-score]
1,AAGGTTAA,0.0704
2,ACCTCCAC,-0.155
3,GCGCCTCC,-0.384
4,CGACGTCG,-0.174
5,GGTGACAA,-0.0754
6,CGTCACCC,-0.332
7,CTGAATGA,-0.213
8,ATACAGAC,0.0329
9,ATGGCTAA,0.0632
10,CGCTTACC,-0.097
11,CCCCCAAC,-0.36
12,AACTTCAA,0.0439
13,CCGCTTTC,0.0607
14,AGAGAATG,0.0921
15,ATCAGATG,0.146
16,ACCAGACG,-0.153
17,ACGCAGGC,-0.296
18,AAGTCCAC,-0.116
19,AACGTTGT,0.168
20,AAGAGCAG,-0.153
21,ACCGTGTA,0.00113
22,ATCTAGCC,0.168
23,ACTTGGCT,0.0691
24,CCGGGCAG,-0.302
25,ACAGGCAG,-0.324

row,Sequence,binding signal [E-score]
1,TAATTGGA,0.0517
2,TCTATAGA,0.311
3,GAGGGTAC,-0.155
4,ACCGGCAG,-0.0869
5,AGCGCGGC,-0.11
6,GGGTTCGA,-0.000728
7,AGAACCGA,0.0991
8,CAAGCACG,-0.178
9,AGTAATAG,0.355
10,CACTACGG,0.0947
11,CGCAGGTC,-0.231
12,CATATTGC,0.0992
13,CGGGGTAC,-0.169
14,TAATACGA,0.284
15,GACGTATC,0.0546
16,CCCTGTAA,-0.0724
17,GGACGTCA,-0.212
18,GTTATGAA,0.214
19,TCGTGAGA,0.0406
20,ACATGCGT,-0.0138
21,CTCGTGGC,-0.346
22,GCATGACA,-0.159
23,CACTCTGG,0.0657
24,CACTTTAA,0.0796
25,AGGCGTTA,0.0492

row,Sequence,binding signal [E-score]
1,CATATAAG,0.0717
2,AGCGGTAG,0.33
3,ACATCTAG,0.323
4,GCAAGTAA,-0.0287
5,CGCGACCC,-0.177
6,ATACGCGA,0.229
7,TCAATTAA,0.161
8,GACTCCCA,-0.104
9,GTAATTGA,0.0917
10,AGGCGTAC,-0.128
11,GCATAACA,0.112
12,CTCTGATA,-0.0272
13,ATAGTAAG,0.278
14,ACCGCAAC,0.0546
15,ACCAGGGC,-0.272
16,CGTTAGAC,-0.112
17,CAGCCTGA,-0.0891
18,ACCTTATG,-0.0324
19,AAAGCATT,0.0498
20,AATTCTGG,0.093
21,GCAATAGC,-0.0919
22,CGTAGTAG,0.223
23,ATTTCTAC,0.353
24,GCGCGAGA,0.0479
25,GGCAAGAC,-0.151

row,Sequence,binding signal [E-score]
1,AACGTTGC,-0.026
2,CGAGAACA,0.0544
3,CGCTTGTA,-0.0651
4,AGTGCAGC,-0.17
5,AGGCTAAT,-0.085
6,GTTCACTA,0.143
7,AGGAACAA,0.00858
8,ATACTATC,0.359
9,GATCACCA,0.041
10,CAGAACTC,-0.00555
11,GCCAAATA,0.0984
12,ACACTGGG,-0.257
13,CATATTAG,0.274
14,GGCGCAAC,-0.169
15,AAAAACCT,0.256
16,AATGGCGT,-0.0931
17,AGGTCTCC,-0.157
18,ATTGCAAA,0.00635
19,GTGATAGA,0.268
20,AGTTAGTC,0.102
21,ACCAGGTA,-0.0594
22,AGGGTCGC,-0.122
23,CGGTCTGA,-0.0369
24,CTGAAGCA,-0.0795
25,CATCAACC,-0.0486

row,Sequence,binding signal [E-score]
1,ATAAAGCG,-0.0612
2,AGGAGCCG,-0.0611
3,GGCCGCGA,-0.23
4,GAGCTGAC,-0.127
5,CTGGGACA,-0.177
6,ATTGTGGC,0.118
7,AGATCTGA,0.0507
8,AATAGGCC,-0.0959
9,GAAGATAC,0.186
10,CTGAACAA,-0.0142
11,CACTTGTA,0.238
12,CAAAGACA,-0.0129
13,GCTACAGC,0.141
14,GAGTCAGA,-0.155
15,GTTGTGTA,0.169
16,AAATTCCA,0.103
17,AATCGGGT,-0.0571
18,ACGTGCAC,0.0307
19,CCAGCACC,-0.177
20,AGGTATCC,0.0358
21,CCCAGCAC,-0.245
22,GCTGGAAC,-0.0935
